Measurements reported in PMC4336329 (PLoS ONE, 2015).
The whole screen tested about 310,000 compounds, of which about 2,200 (0.71%) showed an effect of 50% or more. The effect is printed as a negative number. Some of the results follow.

Each compound was assayed against human ether-à-go-go-related gene (hERG) potassium channel (human, UniProt Q12809) (assay: primary screen, population patch clamp on CHO cells stably expressing hERG).
Chain of human ether-à-go-go-related gene (hERG) potassium channel (Q12809 whole entry, looked up): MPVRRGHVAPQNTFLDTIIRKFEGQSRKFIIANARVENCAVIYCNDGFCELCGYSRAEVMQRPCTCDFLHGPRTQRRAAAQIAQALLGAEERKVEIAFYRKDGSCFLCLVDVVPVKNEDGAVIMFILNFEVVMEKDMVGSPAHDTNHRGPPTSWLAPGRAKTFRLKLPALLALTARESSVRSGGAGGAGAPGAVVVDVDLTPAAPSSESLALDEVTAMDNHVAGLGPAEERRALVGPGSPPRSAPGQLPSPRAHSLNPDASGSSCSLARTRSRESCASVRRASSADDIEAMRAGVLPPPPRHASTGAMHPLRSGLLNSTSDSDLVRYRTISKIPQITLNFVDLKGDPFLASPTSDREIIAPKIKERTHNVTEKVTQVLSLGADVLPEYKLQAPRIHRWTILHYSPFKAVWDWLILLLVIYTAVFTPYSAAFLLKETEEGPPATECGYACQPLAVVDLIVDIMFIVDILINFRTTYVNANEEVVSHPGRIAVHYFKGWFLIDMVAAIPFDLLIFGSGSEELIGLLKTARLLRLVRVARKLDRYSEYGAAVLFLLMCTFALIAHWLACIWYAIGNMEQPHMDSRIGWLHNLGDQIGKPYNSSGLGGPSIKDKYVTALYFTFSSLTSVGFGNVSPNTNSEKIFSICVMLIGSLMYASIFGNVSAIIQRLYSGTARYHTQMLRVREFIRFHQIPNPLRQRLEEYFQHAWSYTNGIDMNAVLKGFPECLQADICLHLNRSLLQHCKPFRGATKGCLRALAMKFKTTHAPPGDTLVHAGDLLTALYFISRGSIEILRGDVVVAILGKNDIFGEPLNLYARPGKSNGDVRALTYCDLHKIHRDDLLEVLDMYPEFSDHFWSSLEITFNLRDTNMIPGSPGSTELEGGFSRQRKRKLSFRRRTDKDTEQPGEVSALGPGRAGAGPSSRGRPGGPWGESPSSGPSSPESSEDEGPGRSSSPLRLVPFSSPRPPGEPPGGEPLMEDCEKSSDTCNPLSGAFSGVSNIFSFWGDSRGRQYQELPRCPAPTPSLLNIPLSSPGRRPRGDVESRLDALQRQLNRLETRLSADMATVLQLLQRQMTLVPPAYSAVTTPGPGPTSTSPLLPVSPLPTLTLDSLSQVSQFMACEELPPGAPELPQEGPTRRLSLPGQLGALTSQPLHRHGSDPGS

SMILES | hERG current change (%, negative = inhibition) at 1uM [%]
CC1CCC(NC(=O)CSc2ccc(S(=O)(=O)N(C)C)cn2)CC1 (centres unmarked) | 10.3
Cc1cccc2cc(C#N)c(SCCN3CCCCC3)nc12.Cl | 0.285
Cc1ccc(NC(=O)c2noc3c2CCCCC3)cc1 | -1.17
C=CCn1c(SCc2cc(=O)n3ccsc3n2)nc2sc(C)c(C)c2c1=O | 5.87
CC(=O)c1cccc(N(CC(=O)O)S(C)(=O)=O)c1 | 9.89
COc1cc2c(cc1OC)CN(C(=O)/C=C/c1cccs1)CC2 | 4.16
Cc1ccc(NC(=O)CN(C)C(=O)Cc2ccccc2F)cc1 | 3.53
CC1CCc2c(nc3nc[nH]n3c2=O)C1 (centres unmarked) | 6.99
COC(=O)[C@@]12CCCCN1[C@H](c1ccc(-c3ccccc3)cc1)[C@@H]1C(=O)N(C)C(=O)[C@@H]12.O=C(O)C(F)(F)F | 14
CCCN(CCC)C(=O)c1ccc2c(c1)N(Cc1ccccc1)C(=O)CS2=O (centres unmarked) | 6.36
Cc1ccc(/C(N)=N/OC(=O)COc2ccccc2Cl)cc1 | 3.53
CN1CCN(c2ccccc2N)CC1 | 6.39
CC(C)S(=O)(=O)c1cnc(-c2ccccn2)nc1N | 12.8
CC(=O)OCCCNc1cc(Sc2nc3ccccc3s2)c2nonc2c1[N+](=O)[O-] | 1.04
NC(=O)c1nsc(C(=O)N(Cc2ccc(F)cc2)C(C(=O)NCC2CCCO2)c2ccc(F)cc2)c1N (centres unmarked) | -0.266
COc1ccc(-c2ccc(N(C)C)cc2)cc1[C@H]1[C@@H]2C=CCC[C@@]2(C)C(=O)N1Cc1ccccc1 | 13.1
COC(=O)CNC(=O)C(C)NC(=O)OCc1ccccc1 (centres unmarked) | 12.8
O=C(CNC(=O)N1CC(=O)Nc2ccccc21)NCCc1c[nH]c2ccccc12 | 0.511
CS(=O)(=O)c1ccc(C(=O)Nc2ccc(S(=O)(=O)N3CCCCC3)cc2)cc1 | 8.31

SMILES | hERG current change (%, negative = inhibition) at 1uM [%]
CC(=O)N(C(C)=O)c1nc(-c2ccccc2)cn1/N=C/c1cccc([N+](=O)[O-])c1 | 8.04
CCC(=O)Oc1ccc2c(C)cc(=O)oc2c1C(=O)c1ccccc1 | 10.3
Cc1ccccc1NC(=O)Nc1cc(S(N)(=O)=O)ccc1C | 13.5
Nc1nc2n(n1)C(=O)CC(c1ccccc1)N2 (centres unmarked) | 7.48
O=[N+]([O-])c1ccccc1/C=C/C=N/N1CCCCC1 | 13
CC(NC(=O)Cn1cc(C(F)(F)F)ccc1=O)c1ccc(F)cc1 (centres unmarked) | 2.55
Cc1cccc(OCC(=O)NCc2cc(C)nc3ccccc23)c1 | -2.69
Cn1nc(C(C)(C)C)c([N+](=O)[O-])c1C(=O)NC(C)(C)C | 9.22
CCOc1cc(CO)cc(Br)c1OCC(=O)O | -5.71
CC(=O)Nc1ccc(CN2CCCC(C(=O)c3cccc(C(F)(F)F)c3)C2)cc1 (centres unmarked) | 7.86
COc1ccc(OC)c(NC(=O)C2CCCN2C(=O)C2CCC(C)CC2)c1 (centres unmarked) | 11.6
CCCCCCCCCS(=O)(=O)Nc1cc(C)ccn1 | 13.4
C=CCSc1nnc(-c2sc(-c3ccccc3)nc2C)n1C | -0.332
O=C(NC(NC(=O)c1c(F)cccc1F)c1ccc([N+](=O)[O-])cc1)c1c(F)cccc1F | -3.16
O=C(Nc1c(Cl)cc(Cl)cc1C(=O)NCc1cccnc1)c1ccc(Cl)cc1Cl | 2.15
COC(=O)CCSCC(=O)N1N=C(c2ccc(OC)cc2)CC1c1cccc(OC)c1OC (centres unmarked) | 7.54
Cc1ccc(S(=O)(=O)N2CCCC2CNC(=O)C(=O)NCCN2CCOCC2)cc1 (centres unmarked) | 16.8
Cc1cccc(NS(=O)(=O)c2ccc(OCC(=O)N3CCCC3)cc2)c1 | 4.9
CCC(C)c1ccc(O)c(NC(=S)NC(=O)c2cccnc2)c1 (centres unmarked) | 11.9

SMILES | hERG current change (%, negative = inhibition) at 1uM [%]
CC(C)(C)c1ccccc1OCC(O)CN1CCN(c2ccccn2)CC1.Cl (centres unmarked) | -9.59
C/C(=N\NC(=O)COc1ccccc1[N+](=O)[O-])c1cccs1 | 15.9
COc1ccc(CNC(=S)Nc2ccc3nc(N4CCOCC4)cc(C)c3c2)cc1 | 4.04
C=CCNc1nc2c(c(=O)n(C)c(=O)n2C)n1Cc1ccc(F)cc1 | 5.56
Cn1nc(-c2ccccc2)c(C(=O)Nc2ccc(Cl)cc2)c1Cl | -12.9
C=CCNC(=O)C1COc2ccccc2O1 (centres unmarked) | 6.81
O=C(c1ccc([N+](=O)[O-])cc1)c1cc2ccc(O)cc2oc1=O | 5.39
C[C@@H](C(=O)NCc1ccccn1)[C@@H]1C[C@@]1(C)[C@@H](NC(=O)OCc1ccccc1)c1ccccc1 | -2.32
Cc1cc(C)c2c(n1)nn1c(NCCOCCO)cc(C)nc21 | 1.69
Cc1ccc(S(=O)(=O)C2(C(=O)Nc3ccc4c(c3)OCO4)CC2)cc1 | -2.71
CCOc1ccc(S(=O)(=O)NCc2ccc(Cl)cc2)c2cccnc12 | 2.81
CSc1ncccc1C(=O)Nc1nc(C(C)(C)C)cs1 | 3.63
COc1ccc(-c2ccc(CCC(=O)O)n2CC(=O)Nc2cccc(OC)c2)cc1 | 5.42
N#Cc1c(N)c(C#N)c(-c2ccc(O)cc2)c2c1CCCC2 | -1.33
COc1cc2ncnc(NCCCN3CCOCC3)c2cc1OC | 17.3
CC(NC(=O)OC1CCCCC1)N1C(=O)C2C3C=CC(C3)C2C1=O (centres unmarked) | 9.97
C[NH+](C)CCOC(=O)C1(c2ccccc2)CCOCC1.[Cl-] | 9.36
O=C(CSc1nnnn1-c1ccc(Cl)cc1)Nc1cccnc1Cl | -0.418
